Source: the supplement of paper PMC11417369
± gives the standard deviation of the averaged measurements. The list shows a part of the results.

system: PfAP2-G AP2 domain (GST-tagged); test: gcPBM binding intensity (ln(normalized median fluorescence intensity)); higher = stronger DNA binding
Summary of the method: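 Plasmodium falciparum DNA-binding domains carrying a GST tag were expressed in E. coli and applied for 1 h, at about 25 μg on average, to an Agilent 4 × 180k array. The array held primer-extended double-stranded 36-bp intergenic genomic probes together with negative controls, and binding took place in 1× PBS with 1% milk, 0.2 mg/ml BSA, 0.5% salmon testes DNA and 0.03% Triton X-100. An Alexa488 anti-GST antibody detected bound protein, and the array was scanned at 488 nm. Binding intensity is taken as the highest Masliner-normalised natural-log median intensity across replicate spots of either probe orientation.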

Sequence | gcPBM binding intensity (ln)
TAAATACATAAATACACACACATATATATATATATA [CACACA_site5549] | 10.6 ± 1
TATCATTTTGAAGTATGTACTTATTTTATTAAAATA [XGTACX_site7784] | 11.3 ± 0.83
TTTTTCCAATCAGATGCATGTTACTATATTTGGTTC [TGCATGCA_site52] | 9.96 ± 0.014
CACCTCAATATTCACATACACACAATATCATCGAAG [CACACA_site1675] | 10.1 ± 0.2
TAGGTCATATTTTTTGCACACAAAAAAAAATATAAA [CACACA_site3380] | 10.3 ± 0.44
TGTATAAGGTTTTTACGTTTTGAAGGATGTATTGTT [CACACA_negctrl_site1245] | 10 ± 0.16
ATGTAATTGTATACATGTACGCAAACACAAAAGCAT [XGTACX_site6771] | 11.5 ± 0.88
GGGAGGATATTACACAGTACCCAGGAAATCTACGGA [XGTACX_site4874] | 10.9 ± 0.61
TATGTTCCGAAGGTTGTACACACATAGAAATATACA [CACACA_site9285] | 11.6 ± 0.8
TTTTTTTTTTTTGTAACATGCAAACAACAATATGGG [TGCATGCA_site695] | 10.3 ± 0.54
ATGAACTTATTTTAGTGTACTAAAAAATATGACTTC [XGTACX_site470] | 11.4 ± 1
AAGGAAAAAACAAATACACACAAAAACGCATTATAA [CACACA_site3466] | 10.2 ± 0.078
TACATAATTTTAATCACACACAAACAAACACATACA [CACACA_site194] | 10.5 ± 0.54
GTAAGTATATATAATAGTACATATATATTAATATAT [XGTACX_site4314] | 11 ± 0.55
TTTTGTTCATACAAATTGGAACAAGACAAAAATATA [XGTACX_negctrl_site327] | 10.4 ± 0.35
TATTCTAGTCTGCTTACACACATATTTATATTTATA [CACACA_site7432] | 10.13 ± 0.078
TGTTTACACTTTTTTTGTACACATAATTTTATTTGA [XGTACX_site3760] | 11.3 ± 0.81
AAAAAAAAAAAAAACACACACATATAACATATTTAA [CACACA_site6745] | 10.1 ± 0.3
CTATATATTTAAAAAAGTACAAATATAAAAATATAT [XGTACX_site676] | 11.4 ± 0.88
TAATATTTTATTTTTGTTGTGGATCCAAAAAAAAAA [CACACA_negctrl_site846] | 10.4 ± 0.4
TGTTTATCATATTTGTGTCCTCATTTTTTAGTATCA [XGTACX_site947] | 11.3 ± 0.74
AATATATGGTTTCATGATATAAAATTCAATTTAATG [GTGCAC_negctrl_site610] | 9.79 ± 0.3

Sequence | gcPBM binding intensity (ln)
TATATATATATATATGTATGCATGTCCTTTTTTATT [TGCATGCA_site344] | 11 ± 0.67
ATTTTTTTTAAACGAAGTACAATTTGTGCATTGGAA [XGTACX_site8109] | 11.2 ± 0.88
TTTTTTTTTTTTGTAGTGCAAATTAAAAATATATGT | 10.2 ± 0.57
ATTTTTTTTTTTTTTTTTTTTTTTTTTTTTTTATGC [CACACA_negctrl_site1018] | 9.655 ± 0.007
TTATTTCTTCAGAAAAAATTAAAAAATTAAACAATA [CACACA_negctrl_site169] | 9.86 ± 0.11
TAATTTACACCTACGTGTACACACAAAAATATGTTT [XGTACX_site1868] | 11.6 ± 0.95
TTTATTATCAAGATTGCACACCCTTATGAACTTTTT [CACACA_site3166] | 10.15 ± 0.078
ACTATATTTCTATAATGTACAAAAATAAATCATATG [XGTACX_site3337] | 10.8 ± 0.39
ACCTATAAAAAATAATGTACAGGAAGAAATATAAGG [XGTACX_site5822] | 11.2 ± 0.57
ACAAAAAAAAAGGAAACACACAAAAAAAAAAAATAA [CACACA_site3523] | 9.875 ± 0.064
AGAAATATGTTGAAGCATTTATAATGTAGATATAAG [GTGCAC_negctrl_site640] | 9.68 ± 0.18
AAGATCATATATTCGTGGGTATAAAAAGTTATAATA [TGCATGCA_negctrl_site439] | 10.1 ± 0.13
GTAATATTATAATATACACACATAGAATATATATAT [CACACA_site413] | 9.92 ± 0.071
AAAAAAAAAAAAAATACACACAAACACAAATTAAAT [CACACA_site5982] | 10.1 ± 0.22
AATAAAGGAAATAAATAATTTATTTTGTAAAATATG [CACACA_negctrl_site97] | 9.98 ± 0.12
ATATATATGAATACATGTACGTATTTGTCTATGTAT [XGTACX_site8306] | 11.5 ± 0.66
CAATGTTAACATATTACACACATATGTATTTATAAT [CACACA_site5512] | 10.06 ± 0.014
GCATATATTATATATTTATTTATTTTTTTTTTTTAA [GTGCAC_negctrl_site193] | 9.45 ± 0.16
TAAATTACATGAAATTGTACATGAATATTAAATATA [XGTACX_site3909] | 10.7 ± 0.45
ATATATACAAAGGATTAACACACATATTATTATATA [CACACA_site8563] | 9.81 ± 0.014
TTCGTTATAATTGAATTTACAATATGCTTTATAATG [XGTACX_negctrl_site238] | 9.76 ± 0.11
AAAATATTTATATTTACACACACATAATACATATAT [CACACA_site32] | 10.15 ± 0.099

Sequence | gcPBM binding intensity (ln)
GTGTACAGTTTTTGCACACATATAAATAAAAAAAAG [CACACA_site3599] | 11.2 ± 0.66
TATAAATACATACGTACACACAAATATTAAAATATA [CACACA_site5129] | 11.5 ± 0.87
AAATAAAATTATAATACATGCATACATACATATATA [TGCATGCA_site69] | 9.82 ± 0.028
TGTGTTAATATATGAAGTACACAATACACACTAATT [XGTACX_site5469] | 11.4 ± 0.73
ATGTTACTCAGACACACACACATAAAAAAACAAAAA [CACACA_site3249] | 10.4 ± 0.53
CGAACTGCACTTTTTAGTACTTAATAATTATTTTTT [XGTACX_site2446] | 11 ± 0.51
TAATATCATTTATGGGGTACCTCCTATTCTTATTTA [XGTACX_site1839] | 11.1 ± 0.46
AAAAAAAACATCCTCACACATATATATATATATATA [CACACA_site5166] | 9.92 ± 0.28
TCATATGTTAAATGATGTACATTTAATATAAATAAA [XGTACX_site900] | 11 ± 0.69
TATATATATTTATGCACACAAAATATATTATATAAT [CACACA_site5955] | 10.1 ± 0.27
AGGAAAAAAGAAAAAACACACATAAATATTTATATA [CACACA_site7446] | 9.7 ± 0.099
TAATAATTACAAAGAAGTACATAAAAAAAAATTTAT [XGTACX_site4684] | 11.5 ± 1
CTATATATATATTTCAGTACATATTAAGAATATATA [XGTACX_site4860] | 11 ± 0.73
TTCTAATAAATGTGTTGTACACCTTTAGCAACTATT [XGTACX_site3235] | 11.3 ± 0.83
TATATAAATATATACACACATACATACATACATATA [CACACA_site3835] | 10 ± 0.12
ATATATATAAATACAACACACATGTAATATATAAAT [CACACA_site5766] | 9.965 ± 0.035
ACGTAAAATAGGGACGCATGCACAAATATTTTTAAA [TGCATGCA_site336] | 10.6 ± 0.42
TATACATCATTTTTCAACAACAAAAAAAAAAAAAAT [CACACA_negctrl_site1185] | 9.92 ± 0.44
AAAAATATAATATATGCACACATACATACATATATA [CACACA_site7915] | 9.865 ± 0.049
ATAATTAGTTCAATTTTTTTTTTTTTTTTTTTTTTT [CACACA_negctrl_site1371] | 10.9 ± 0.54
ATTAATTATATATATACACACACATACACCCAAATA [CACACA_site9126] | 10.5 ± 0.36
TAAATACTTCGTAAAACACACAAGTAGAAAAAAAAA [CACACA_site360] | 10.1 ± 0.16

Sequence | gcPBM binding intensity (ln)
TTATTTATTTATTGTTGTACACAAAATGATTCTTAA [XGTACX_site6480] | 11.6 ± 1.1
AAACAAAACAAAACATGTACACATTATATATATATA [XGTACX_site3374] | 11.6 ± 1.2
ATTGTGTTGACGGGTGACCCTTCCAGAGAAATAGAA [CACACA_negctrl_site1362] | 10.4 ± 0.4
TTTTTTTTAATGAGAAGTACGGTCTTTCAATGTCTT [XGTACX_site6773] | 10.9 ± 0.73
TTTACATTTATGTGCACACATTCCATTTGAAAGTAA [CACACA_site1953] | 10.5 ± 0.34
AATATTTTTTTTTAAACATGCATATTTGCATTACCC [TGCATGCA_site437] | 9.91 ± 0.11
ATAACTTTCTATACATGTACACATATATGGTATTTT [XGTACX_site7535] | 11.3 ± 0.69
ATAAATTTTTTATGAACACACAAATACACCCACTCA [CACACA_site5465] | 10.9 ± 0.48
TGTATATATTTTAATAGTACTCATATATATATATAT [XGTACX_site7216] | 11.3 ± 0.59
CTTATAAAAAAAATTGCACACATATTATACAGGACG [CACACA_site8133] | 10.3 ± 0.18
TCCCCTTAATTTAAAACACACAAACAAATAAGTTAG [CACACA_site5973] | 9.965 ± 0.064
TAAAAATTAAAACTGGGTACAAATTTATAGATAGCC [XGTACX_site8075] | 11.1 ± 0.69
CATTAACAAATAAATGCACACATATATATAAATAAT [CACACA_site7892] | 9.935 ± 0.035
AATTTATTAGATAGATGTACATTTTAATAAAAGTAG [XGTACX_site6819] | 11.1 ± 0.67
TAAAGATGAAATATCACACATATATAAATATATAAA [CACACA_site4580] | 9.66 ± 0.028
ATATGTTTTTTTTTTTTTTTTTAATTTGTCATAAAT [CACACA_negctrl_site1208] | 9.79 ± 0.2
TCTTTCAATATTAATGCATGTTAATAATAAATTTTA [TGCATGCA_site448] | 9.675 ± 0.035
TGAACAATATATAATAGTACATATTTATTTTTTTCT [XGTACX_site4256] | 10.8 ± 0.58
ACTTTTACACTTTGATTGCACTACTAAACCAGTTCA | 10.4 ± 0.2
AGAATTATTCTAAAAACACACAATACAAAAGTGCAT [CACACA_site3004] | 10.1 ± 0.34
AAAAAACACGCGCACACACACACACGCGCCCACATA [CACACA_site7106] | 11.2 ± 0.74
ATAAAAAAAAATATTTGTACACATATTTATATATTA [XGTACX_site8147] | 11.4 ± 0.7
